{"source": "the supplement of paper PMC3334620", "note": "Whole data set: some 33,000 sequences, median “E-score (-0.5 to 0.5)” near -0.036, cut for the highest 2% near 0.37. The list shows a part of the results.", "data": [{"target": "T1, Yer064c (UniProt P40041)", "T1 sequence": "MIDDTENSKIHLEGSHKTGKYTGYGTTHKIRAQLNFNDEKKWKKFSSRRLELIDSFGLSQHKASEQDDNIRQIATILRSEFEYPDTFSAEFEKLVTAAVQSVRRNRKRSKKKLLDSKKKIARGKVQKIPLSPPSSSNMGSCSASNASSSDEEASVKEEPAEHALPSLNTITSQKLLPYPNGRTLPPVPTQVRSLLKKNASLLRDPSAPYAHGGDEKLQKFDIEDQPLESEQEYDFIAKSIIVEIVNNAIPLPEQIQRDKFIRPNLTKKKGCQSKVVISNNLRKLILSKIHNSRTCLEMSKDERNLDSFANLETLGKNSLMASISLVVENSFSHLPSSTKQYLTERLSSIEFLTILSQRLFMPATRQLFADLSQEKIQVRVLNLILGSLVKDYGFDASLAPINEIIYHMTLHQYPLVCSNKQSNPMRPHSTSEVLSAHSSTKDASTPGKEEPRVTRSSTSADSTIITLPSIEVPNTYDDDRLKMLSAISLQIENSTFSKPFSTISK", "test": "PBM E-score (8-mer binding enrichment) (E-score (-0.5 to 0.5)); higher = stronger / more preferred TF binding; most listed sequences are background and not binding sites", "conditions": "protein concentration: 200 nM; construct: GST-full length", "in_short": "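GST-tagged yeast TFs (full-length or DNA-binding domain) were made by PURExpress in vitro transcription/translation and applied at about 100-200 nM to universal all-10-mer Agilent arrays. The arrays were made double-stranded by primer extension, on fresh or once-stripped slides. Bound protein was detected with fluorescent anti-GST, and scans were normalised with masliner. Each ungapped eight-base word, pooled with its reverse complement, received an E-score (modified Wilcoxon-Mann-Whitney statistic) from the Universal PBM Analysis Suite.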", "values": [{"sequence": "CTACAAGA", "PBM E-score": 0.0477}, {"sequence": "CGTCTGTC", "PBM E-score": -0.138}, {"sequence": "AATACTCG", "PBM E-score": 0.0739}, {"sequence": "CGCGCACG", "PBM E-score": -0.0982}, {"sequence": "GACATGAA", "PBM E-score": -0.0945}, {"sequence": "CGCTTTCA", "PBM E-score": -0.0818}, {"sequence": "CAGCTCCG", "PBM E-score": 0.0233}, {"sequence": "CTCTAACC", "PBM E-score": -0.142}, {"sequence": "CTTCTAAC", "PBM E-score": -0.0284}, {"sequence": "TAAGCCTA", "PBM E-score": -0.0345}, {"sequence": "AACTATAA", "PBM E-score": 0.0773}, {"sequence": "CATGTAGC", "PBM E-score": -0.048}, {"sequence": "TCTTTGCA", "PBM E-score": 0.08}, {"sequence": "AAGCGTGC", "PBM E-score": -0.222}, {"sequence": "GCATACGA", "PBM E-score": -0.159}, {"sequence": "ATGACCCG", "PBM E-score": -0.0995}, {"sequence": "CCGCAGAA", "PBM E-score": -0.147}, {"sequence": "CGTTTTCC", "PBM E-score": -0.286}, {"sequence": "CTCAGGTC", "PBM E-score": -0.0443}, {"sequence": "CATGACCC", "PBM E-score": 0.0512}, {"sequence": "CACTTGCC", "PBM E-score": -0.214}, {"sequence": "GCCACCAC", "PBM E-score": -0.228}, {"sequence": "CTCAACCC", "PBM E-score": 0.203}, {"sequence": "ATTTATGG", "PBM E-score": 0.0947}, {"sequence": "GGAACAGA", "PBM E-score": -0.0798}, {"sequence": "CTGCCTAA", "PBM E-score": -0.0491}, {"sequence": "GGCGATGA", "PBM E-score": -0.0497}, {"sequence": "CGGCCAGC", "PBM E-score": -0.256}, {"sequence": "AGAGCTCT", "PBM E-score": -0.292}, {"sequence": "AGCCCGAG", "PBM E-score": -0.00679}, {"sequence": "CCAAGCCG", "PBM E-score": -0.282}, {"sequence": "ACCAGCAC", "PBM E-score": -0.237}, {"sequence": "ATCGTCTA", "PBM E-score": 0.00108}, {"sequence": "CGACGTGC", "PBM E-score": -0.248}, {"sequence": "CGAACTTA", "PBM E-score": -0.157}, {"sequence": "CCTCGAAA", "PBM E-score": -0.00031}, {"sequence": "AAGGAGTA", "PBM E-score": 0.0121}, {"sequence": "AATTGTCG", "PBM E-score": -0.178}, {"sequence": "TATGGCCA", "PBM E-score": -0.278}, {"sequence": "CTTAACTC", "PBM E-score": 0.164}, {"sequence": "AGTCGACA", "PBM E-score": 0.27}, {"sequence": "AAGGTATA", "PBM E-score": 0.0676}, {"sequence": "ATCCGCGA", "PBM E-score": 0.0854}, {"sequence": "TAAGCGCA", "PBM E-score": 0.0539}, {"sequence": "ACCAATGG", "PBM E-score": -0.129}, {"sequence": "CCCCAGAA", "PBM E-score": -0.176}, {"sequence": "CACCCACC", "PBM E-score": 0.122}, {"sequence": "ACAGTCAC", "PBM E-score": 0.405}, {"sequence": "GGCATACA", "PBM E-score": -0.226}, {"sequence": "CCCAGAGC", "PBM E-score": -0.123}, {"sequence": "TAAGTTGA", "PBM E-score": 0.222}, {"sequence": "CAGGCGTA", "PBM E-score": -0.0189}, {"sequence": "ACTTCCCT", "PBM E-score": -0.0245}, {"sequence": "GAGTGCCC", "PBM E-score": -0.234}, {"sequence": "GGTTCACA", "PBM E-score": 0.00505}, {"sequence": "CTATCGAG", "PBM E-score": 0.0679}, {"sequence": "GGTCACCA", "PBM E-score": 0.036}, {"sequence": "CCGTACTC", "PBM E-score": 0.0902}, {"sequence": "GCCGCCTA", "PBM E-score": -0.157}, {"sequence": "CTGTGTAC", "PBM E-score": 0.103}, {"sequence": "ACCAACAT", "PBM E-score": -0.00157}, {"sequence": "AAGCTAAT", "PBM E-score": 0.156}, {"sequence": "CGTGGGGC", "PBM E-score": -0.258}, {"sequence": "AGTTATCG", "PBM E-score": 0.0867}, {"sequence": "CCAGCGAA", "PBM E-score": -0.268}, {"sequence": "CAGATCCA", "PBM E-score": -0.13}, {"sequence": "CAGGTGAA", "PBM E-score": -0.0165}, {"sequence": "CCAAAACC", "PBM E-score": -0.0619}, {"sequence": "AGCCAGCC", "PBM E-score": 0.0353}, {"sequence": "GTCAACAA", "PBM E-score": 0.105}, {"sequence": "ACTGTCTG", "PBM E-score": 0.0914}, {"sequence": "AAATAGTA", "PBM E-score": -0.0273}, {"sequence": "CGGGGGTA", "PBM E-score": -0.271}, {"sequence": "AGTGTGCC", "PBM E-score": -0.235}, {"sequence": "CCCGAAAA", "PBM E-score": -0.148}, {"sequence": "CACGCTTA", "PBM E-score": 0.0101}, {"sequence": "AGGCTAAT", "PBM E-score": 0.109}, {"sequence": "AATGCTGT", "PBM E-score": 0.018}, {"sequence": "GCCTGCCA", "PBM E-score": -0.285}, {"sequence": "CATGTACC", "PBM E-score": -0.137}, {"sequence": "AAACCAAA", "PBM E-score": -0.00153}, {"sequence": "ACTGTAAA", "PBM E-score": 0.102}, {"sequence": "TGACCGAA", "PBM E-score": -0.0108}, {"sequence": "CATAAGAC", "PBM E-score": 0.159}, {"sequence": "ATGGGTAG", "PBM E-score": 0.129}, {"sequence": "ACCCGGAG", "PBM E-score": 0.101}]}]}
